Among the test systems are ERBB3; ERBB4; ERN1; FER; FES; FGFR1; FGFR2; FGFR3; FGFR4; FGR; FLT1; FLT3-autoinhibited; FLT3.
Common to all, as to settings: concentration: 1 μM,replicates: in singlicate; n = 1
The subject of a further assay is T1, ERK1.
T1 construct: gene MAPK3

The next assay concerns T2, ERK2.
T2 construct: gene MAPK1

Another assay has as its system T3, ERK3.
T3 construct: gene MAPK6

A further assay has as its system T4, ERK4.
T4 construct: gene MAPK4

For another assay, the system named is T5, ERK5.
T5 construct: gene MAPK7

For the next assay, the system named is T6, ERK8.
T6 construct: gene MAPK15

The test system of a further assay is T7, FAK.
T7 construct: gene PTK2

SMILES strings stand for the structures. For some of these results: What follows is the remainder of the data, with few or none of the strong results. The list shows a part of the results, in another mix than the full data.
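Further: KINOMEscan kinase panel screen.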

With `Cc1cc(C)cc(Oc2nccc(-c3c(-c4ccc(F)cc4)ncn3C3CCNCC3)n2)c1.O=C(O)C(F)(F)F.O=C(O)C(F)(F)F.O=C(O)C(F)(F)F` [SB-284851], the “%Inh” value is listed as 55% in the assay with ERBB3; 27% in the assay on ERBB4; 0% in the assay with ERK1; 0% in the assay on ERK2; 0% in the assay on ERK3; 0% with ERK4. For the same molecule, the “%Inh” value in the assay with ERK5 is 1%; in the assay on ERK8, 13%; in the assay on ERN1, 0%; in the assay with FAK, 31%; in the assay with FER, 0%; with FES it was 5%. Further, the “%Inh” value came to 3% in the assay on FGFR1; 18% in the assay on FGFR2; 14% with FGFR3; 9% with FGFR4; 2% in the assay on FGR; 30% with FLT1. For the same molecule, the “%Inh” value in the assay on FLT3-autoinhibited and in the assay with FLT3 was 0% throughout.

As for `O=C1NC(=O)C(c2ccccc2Cl)=C1Nc1cccc(C(=O)O)c1` [SB-390526], the “%Inh” value in the assay with ERBB3 worked out at 9%; with ERBB4 it was 7%; in the assay on ERK1 it was 2%; with ERK2, 0%; in the assay with ERK3, 0%; in the assay with ERK4 it was 0%. The “%Inh” value in the assay with ERK5 is reported as 5%; in the assay on ERK8, 0%; in the assay on ERN1 it was 7%; in the assay with FAK, 0%; in the assay with FER it was 0%; in the assay on FES, 0%. Moreover, the “%Inh” value in the assay with FGFR1 came to 0%; with FGFR2, 29%; with FGFR3 it was 22%; in the assay with FGFR4 it was 6%; in the assay with FGR, 33%; in the assay on FLT1, 19%. Further, the “%Inh” value with FLT3-autoinhibited and in the assay with FLT3 was 4% throughout.

As to `O=C1NC(=O)C(c2ccc(Cl)cc2)=C1Nc1ccccc1` [SB-317661], the “%Inh” value came out at 17% in the assay on ERBB3; 6% in the assay on ERBB4; 0% in the assay on ERK1; 0% in the assay with ERK2; 0% with ERK3; 0% with ERK4. Besides, the “%Inh” value is reported as 0% with ERK5; 0% in the assay on ERK8; 67% in the assay on ERN1; 19% in the assay on FAK; 0% in the assay with FER; 0% in the assay on FES. The “%Inh” value with FGFR1, in the assay with FGFR2, in the assay on FGFR3, in the assay on FGFR4, in the assay with FGR and with FLT1 was 0% each time. The “%Inh” value in the assay with FLT3-autoinhibited is recorded as 0%; in the assay with FLT3 it was 5%.

As for `O=C1NC(=O)C(c2ccc(Cl)cc2)=C1Nc1cccc(C(=O)O)c1` [SB-360737], the “%Inh” value in the assay with ERBB3 is 0%; with ERBB4 it was 0%; in the assay with ERK1 it was 0%; in the assay on ERK2, 0%; with ERK3, 22%; in the assay on ERK4, 18%. In addition, the “%Inh” value in the assay on ERK5 was determined as 0%; in the assay on ERK8, 0%; in the assay on ERN1, 16%; in the assay on FAK it was 0%; in the assay with FER, 5%; with FES, 0%. In addition, the “%Inh” value in the assay on FGFR1 is given as 0%; in the assay with FGFR2 it was 0%; with FGFR3, 13%; with FGFR4, 13%; in the assay with FGR, 8%; in the assay with FLT1, 22%. In addition, the “%Inh” value in the assay with FLT3-autoinhibited and with FLT3 was 0% each time.

For `O=C1NC(=O)C(c2ccccc2)=C1Nc1ccc(Cl)c(C(=O)O)c1` [SB-390532], the “%Inh” value with ERBB3 amounted to 27%; in the assay on ERBB4 it was 4%; with ERK1, 0%; in the assay with ERK2, 0%; with ERK3 it was 5%; with ERK4, 0%. Further, the “%Inh” value in the assay on ERK5 turned out to be 1%; with ERK8, 0%; with ERN1, 0%; with FAK, 0%; in the assay with FER, 0%; with FES it was 0%. In addition, the “%Inh” value with FGFR1 amounted to 24%; in the assay with FGFR2, 0%; in the assay with FGFR3 it was 37%; in the assay with FGFR4, 23%; with FGR it was 14%; in the assay on FLT1 it was 17%. Besides, the “%Inh” value with FLT3-autoinhibited and in the assay on FLT3 was 0% throughout.

Regarding `O=C1NC(=O)C(c2ccccc2Cl)=C1Nc1ccccc1` [SB-376715], the “%Inh” value in the assay on ERBB3 was found to be 0%; in the assay with ERBB4, 37%; in the assay on ERK1, 0%; in the assay with ERK2, 4%; in the assay with ERK3, 0%; with ERK4 it was 9%. The “%Inh” value in the assay with ERK5 was 0%; with ERK8, 0%; with ERN1, 0%; with FAK, 0%; with FER, 7%; in the assay with FES it was 0%. The “%Inh” value in the assay with FGFR1 came to 0%; with FGFR2, 0%; in the assay on FGFR3 it was 22%; in the assay on FGFR4 it was 8%; in the assay with FGR it was 0%; in the assay on FLT1 it was 10%. Also, the “%Inh” value turned out to be 0% in the assay on FLT3-autoinhibited and 6% in the assay on FLT3.

On to `CS(=O)(=O)c1ccccc1-c1nc(-c2ccc(F)cc2)c(-c2ccncc2)[nH]1` [SB-213663], for which the “%Inh” value with ERBB3 was determined as 8%; in the assay with ERBB4, 46%; in the assay on ERK1, 0%; with ERK2, 0%; with ERK3, 0%; with ERK4 it was 17%. For the same molecule, the “%Inh” value in the assay with ERK5 is given as 0%; with ERK8 it was 0%; in the assay on ERN1 it was 1%; in the assay with FAK, 0%; in the assay with FER it was 5%; with FES, 0%. In addition, the “%Inh” value with FGFR1 is 0%; with FGFR2, 3%; in the assay with FGFR3 it was 0%; in the assay with FGFR4 it was 0%; in the assay with FGR it was 1%; in the assay with FLT1, 0%. The “%Inh” value is 0% in the assay with FLT3-autoinhibited and 27% in the assay on FLT3.

Turning to `O=C1NC(=O)C(c2ccc(Cl)cc2)=C1Nc1cccc(O)c1` [SB-333613], the “%Inh” value with ERBB3 is listed as 54%; in the assay with ERBB4, 13%; in the assay with ERK1 it was 0%; in the assay with ERK2, 0%; in the assay on ERK3 it was 0%; with ERK4 it was 3%. Besides, the “%Inh” value is 0% with ERK5; 4% with ERK8; 46% in the assay on ERN1; 14% in the assay on FAK; 0% in the assay on FER; 0% with FES. For the same molecule, the “%Inh” value with FGFR1 came to 8%; in the assay with FGFR2 it was 17%; in the assay on FGFR3, 7%; with FGFR4 it was 3%; in the assay with FGR it was 0%; in the assay on FLT1 it was 0%. The figures for the “%Inh” value in the assay on FLT3-autoinhibited and with FLT3 were 3% and 0%, respectively.
